We go through one molecule from article PMC5608968 (Cell Reports, 2017).

This assay deals with T1, FLAG-hPIASxα (human, UniProt O75928-2 1-572).
T1 construct: also called PIAS2; source: 293T, transfected, immobilised on anti-FLAG beads
The experiment in a line: pull-down. The note with it: both partners purified.

B1: Recombinant human His-SUMO1 (natural protein)
chain: not shown
notes: also called 6X-His tagged SUMO1; purified SUMO1; source: bought: Boston Biochem (UL-715)
Take B1: the binding result is recorded as “binds”.
